The list shows a part of the results. Viral Rep nickase domains cut single-stranded DNA in vitro (1 h at 37 °C, 3 µM enzyme); the outer parts of the 90-letter strands are left off. A value is the log2 ratio of uncut reads to the pool without enzyme; the lower, the more was cut; hits are not called. Counts are relative to all reads, so uncut sequences can rise above 0 when many others are cut.
Columns and labels:
Test in all cases: uncleaved DNA left, log2 of reads against the no-enzyme library (log2 ratio); higher = less cleavage (more negative = more Rep cleavage of the k-mer); sequences stand for … in CTCGTCCG…ACCGGAGA
[1] = tested on: T1, Rep nickase domain of Muscovy duck circovirus
T1 sequence (residues 1-111 of Rep, tag left off): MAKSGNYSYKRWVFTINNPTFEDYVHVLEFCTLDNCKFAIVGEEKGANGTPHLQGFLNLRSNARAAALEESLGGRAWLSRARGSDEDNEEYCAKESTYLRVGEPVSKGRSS
Method: (§1)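 A pool of 90-nt single-stranded DNAs with seven random bases just before the constant AC of the nick site (name = the seven bases) was cut by 3 µM recombinant His6-SUMO-tagged Rep nickase domain (300 nM DNA, 50 mM HEPES pH 8.0, 50 mM NaCl, 1 mM MnCl2, 1 h, 37 °C, three replicates). Uncut DNA was amplified and sequenced.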

[2] = tested on: T2, Rep nickase domain of banana bunchy top virus
T2 sequence (residues 1-94 of Rep, tag left off): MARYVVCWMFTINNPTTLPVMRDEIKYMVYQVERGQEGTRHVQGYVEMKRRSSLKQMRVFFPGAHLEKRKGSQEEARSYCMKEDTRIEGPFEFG
Method: as §1

[3] = tested on: T3, Rep nickase domain of cabbage leaf curl virus
T3 sequence (residues 1-116 of Rep, tag left off): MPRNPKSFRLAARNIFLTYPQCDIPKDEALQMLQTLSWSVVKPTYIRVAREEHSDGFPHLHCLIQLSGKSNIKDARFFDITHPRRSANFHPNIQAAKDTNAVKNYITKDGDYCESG
Method: as §1

[4] = tested on: T4, Rep nickase domain of chickpea chlorotic dwarf virus
T4 sequence (residues 1-124 of Rep, tag left off): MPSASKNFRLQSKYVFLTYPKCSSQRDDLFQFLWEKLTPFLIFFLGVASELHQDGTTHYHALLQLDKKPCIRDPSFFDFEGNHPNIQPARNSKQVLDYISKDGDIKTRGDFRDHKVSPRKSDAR
Method: as §1

[5] = tested on: T5, Rep nickase domain of faba bean necrotic yellows virus
T5 sequence (residues 1-98 of Rep, tag left off): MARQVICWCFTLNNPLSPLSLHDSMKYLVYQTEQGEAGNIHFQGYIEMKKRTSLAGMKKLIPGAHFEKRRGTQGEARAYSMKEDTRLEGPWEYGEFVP
Method: as §1

[6] = tested on: T6, Rep nickase domain of maize striate mosaic virus
T6 sequence (residues 1-117 of Rep, tag left off): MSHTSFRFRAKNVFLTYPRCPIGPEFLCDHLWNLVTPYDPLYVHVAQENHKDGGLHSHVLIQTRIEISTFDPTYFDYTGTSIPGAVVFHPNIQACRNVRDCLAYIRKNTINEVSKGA
Method: as §1

[7] = tested on: T7, Rep nickase domain of porcine circovirus 2
T7 sequence (residues 2-116 of Rep, tag left off): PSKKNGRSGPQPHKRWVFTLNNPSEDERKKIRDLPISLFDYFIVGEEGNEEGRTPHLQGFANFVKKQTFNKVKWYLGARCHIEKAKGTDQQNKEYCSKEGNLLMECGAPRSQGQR
Method: as §1

[8] = tested on: T8, Rep nickase domain of tomato golden mosaic virus
T8 sequence (residues 1-124 of Rep, tag left off): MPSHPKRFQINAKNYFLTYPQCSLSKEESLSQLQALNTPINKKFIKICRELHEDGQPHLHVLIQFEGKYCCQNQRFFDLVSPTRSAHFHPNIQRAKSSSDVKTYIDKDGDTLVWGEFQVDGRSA
Method: as §1

[9] = tested on: T9, Rep nickase domain of tomato yellow leaf curl virus
T9 sequence (residues 1-136 of Rep, tag left off): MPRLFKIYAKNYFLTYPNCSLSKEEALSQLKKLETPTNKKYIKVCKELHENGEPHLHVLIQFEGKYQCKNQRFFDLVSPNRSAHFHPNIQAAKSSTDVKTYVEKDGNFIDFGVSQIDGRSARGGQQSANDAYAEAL
Method: as §1

[10] = tested on: T10, Rep nickase domain of wheat dwarf virus
T10 sequence (residues 1-137 of Rep, tag left off): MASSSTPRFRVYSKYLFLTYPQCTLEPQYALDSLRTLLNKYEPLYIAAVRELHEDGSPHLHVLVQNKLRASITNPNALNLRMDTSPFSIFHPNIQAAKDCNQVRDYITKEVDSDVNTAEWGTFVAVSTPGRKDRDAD
Method: as §1

Row | Sequence | uncleaved DNA left (log2) [1] | uncleaved DNA left (log2) [2] | uncleaved DNA left (log2) [3] | uncleaved DNA left (log2) [4] | uncleaved DNA left (log2) [5] | uncleaved DNA left (log2) [6] | uncleaved DNA left (log2) [7] | uncleaved DNA left (log2) [8] | uncleaved DNA left (log2) [9] | uncleaved DNA left (log2) [10]
1 | GCATCTC | -0.0639 | 0.00652 | -0.23 | 0.0164 | -0.071 | 0.00203 | -0.0258 | -0.03 | -0.0973 | -0.0871
2 | ACAATCT | -0.0215 | 0.0674 | -0.379 | -2.24 | -0.0158 | -0.825 | -0.0704 | 0.0923 | -0.0598 | 0.0867
3 | CCGCATC | -0.073 | -0.0912 | 0.118 | -0.0311 | 0.0519 | -0.464 | -0.108 | -0.00495 | 0.0116 | 0.0152
4 | TCAGAGC | 0.0181 | 0.025 | -0.222 | -0.354 | 0.00632 | -1.05 | 0.0992 | -0.0384 | 0.0499 | -0.0511
5 | CGGCCAA | 0.0761 | 0.115 | 0.132 | 0.458 | -0.0417 | 0.252 | -0.0184 | 0.0286 | 0.162 | 0.13
6 | TACTACG | -0.0177 | 0.0105 | -0.952 | -1.39 | 0.0979 | -1.26 | -0.922 | -0.107 | 0.0595 | -0.0333
7 | TCATCGT | -0.0655 | -0.0825 | -0.515 | -1.33 | -0.0952 | -1.17 | -0.171 | -0.159 | -0.237 | -0.164
8 | CTACGAT | 0.067 | -0.0531 | -0.0295 | -1.42 | -0.00398 | 0.252 | 0.0805 | 0.052 | -0.00197 | -0.0824
9 | ATCGACT | 0.129 | 0.0855 | 0.0723 | 0.522 | 0.0823 | 1.61 | 0.108 | 0.0673 | -0.025 | 0.0791
10 | GTGCATC | -0.101 | 0.13 | 0.408 | 0.894 | 0.0215 | 1.72 | 0.0998 | 0.0692 | 0.104 | 0.104
11 | AAAACTC | 0.0389 | -0.0991 | -0.5 | -1.56 | 0.0248 | -0.633 | -0.0313 | -0.0236 | 0.000121 | -0.205
12 | CCGCCGA | -0.347 | -0.421 | -0.669 | -0.9 | -0.304 | -0.995 | -0.227 | -0.328 | -0.312 | -0.419
13 | GTGTTTT | -0.288 | 0.0834 | 0.384 | 0.749 | -0.0599 | 1.81 | -2.1 | 0.0309 | 0.0876 | 0.0836
14 | CTTATAG | 0.0389 | 0.047 | -0.7 | -0.366 | 0.0365 | -1.08 | 0.229 | 0.0733 | 0.105 | -0.0129
15 | TTTACAT | 0.131 | 0.134 | 0.437 | -0.745 | 0.0947 | 0.891 | 0.00791 | 0.0617 | 0.22 | 0.161
